From PubChem BioAssay AID1963576 (National Center for Advancing Translational Sciences (NCATS), 2024)
Out of some 46,000 compounds screened, about 60 (0.1%) were called active. Another 3% or so got no clear call; they are omitted. The call rests on the fitted dose curve; in most records, active means well fitted inhibition curve with a large enough effect; inconclusive means small, poorly fitted or top-dose-only effect; inactive means no such curve, though single readings can be large or run the other way. The list shows a part of the results.

Test: Primary qHTS assay for Inhibitors of ovarian cancer metastasis using an organotypic tumor microenvironment (TME) model. Further: nearly all actives have a fitted effect of over 65% in size.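 On activity change, negative = inhibition: plate controls were DMSO wells for no effect and tomatine positive control wells for full effect.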
Details: SKOV3ip1-GFP adhesion/invasion on 3D omental model, fluorescence; series mostly up to 45.8 µM; activity change, negative = inhibition: at the top concentration
Summary of the method: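 qHTS, 4-pt dose (0.36-46 umol/L); SKOV3ip1-GFP, 1,200 cells/well, no FBS; primary omental fibroblast/mesothelial co-culture 48 h pre-grown; 2 h RT + 16 h 37 C; PBS wash, 4% PFA; GFP count 488/509 nm.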

Activity change, negative = inhibition, inactive:
COc1ccc(-c2cc(C(F)(F)F)nc(SCCC(=O)Nc3ccc(NC(C)=O)cc3)n2)cc1 -6.99%
O=C(Nc1ccccc1C(F)(F)F)c1ncoc1-c1ccco1 -19.1%
COc1cc(C2C(=O)N(C3CCCCC3)CC(=O)N2CCc2ccccc2)ccc1OC(C)C (stereo not drawn) 6.92%
Cc1oc(-c2cccc(Cl)c2)nc1CN1CCC(C(=O)NC(C)c2ccccc2)CC1 (stereo not drawn) 11.5%
CCOc1ccc(CN2C(=O)c3ccccc3Sc3ccc(C(=O)NCc4ccco4)cc32)cc1 -19.8%
Cc1oc2ncn(C)c(=O)c2c1C(=O)N1CCN(c2cccc(C(F)(F)F)c2)CC1 -3.81%
COCCNc1nc2c(c(=O)n(C)c(=O)n2C)n1Cc1c(F)cccc1Cl 6.46%
COc1ccc(CNC(=O)c2cc(Nc3ccccc3C)nc3ccccc23)cc1 8.94%
CCN(CC)c1ccc(CNCCCSc2nnnn2C)cc1 -2.86%
Cc1cccc(NC(=O)CSc2nnc(NC(=O)Nc3ccccc3)s2)c1C -5.44%
CSc1ccc(C2C(C(=O)Nc3ccccc3)=C(C)Nc3nc4ccccc4n32)cc1 (stereo not drawn) -2.18%
CCOc1ccccc1CNC(=O)c1ccc(CS(=O)Cc2cccc(Cl)c2)o1 (stereo not drawn) -5.48%
COc1cccc(C2CC(=O)Nc3c2ccc(C)c3C)c1OC (stereo not drawn) -6.72%
CCc1ccc(NC(=O)NCCc2c(C)nn(C)c2C)cc1 -1.71%
COc1cccc(NC(=O)CSc2nnc(-c3cccc(OC)c3)o2)c1 4.21%
Cc1ccc(NC(=O)CSc2ncc(-c3ccccc3)[nH]2)cc1 -2.61%
Cc1ccccc1CNC(=O)C(=O)NCC(c1ccco1)S(=O)(=O)c1cccs1 (stereo not drawn) 4.97%
CSc1ccc(CNC(=O)Cn2nc(N3CCN(c4ccccc4)CC3)ccc2=O)cc1 7.11%
Cc1ccc(Cl)cc1N1CCN(C(=O)c2cnn(C)c2C2CCN(C(=O)OC(C)(C)C)CC2)CC1 -6.15%
Cc1ccc(-c2nnc(Nc3ccccc3O)c3ccccc23)cc1 -12.1%
CC(=O)c1ccc(NC(=O)COc2ccccc2-c2nc(-c3ccc(C)cc3)no2)cc1 -14%
O=C(C1CCC(Cn2c(=O)c3sccc3n(Cc3ccccc3)c2=O)CC1)N1CCOCC1 (stereo not drawn) 0.0812%
Cc1ccc(OCC(=O)Nc2ccccc2C(=O)OCc2cc(=O)n3ccsc3n2)cc1 -22.9%
O=C(NC1CC(=O)N(c2cccc(F)c2)C1)c1ccc2c(c1)OCO2 (stereo not drawn) 0.344%

outcome, inactive:
CCCCN(C)CCCNC(=O)C1CCN(S(=O)(=O)CCC)CC1
COc1ccc(Cl)cc1NC(=O)CSc1cn(CC(=O)N2CCCCC2)c2ccccc12
CCc1ccc(NC(=O)CC2C(=O)NCCN2C(=O)c2ccc(F)cc2)cc1 (stereo not drawn)
O=C(Nc1cc2c(cc1C(=O)c1ccccc1Br)OCCO2)c1ccccc1
